From the supplement of paper PMC10126150
Values marked as one replicate rest on one cluster of the flow cell; about a third of the high ones do not repeat.

System: ATP
Assay: switch fluorescence ratio, 500 uM ATP over buffer (Cy3 cluster intensity, sum of 5 cycles each) (fold (ratio)); higher = stronger signal-on switching upon ATP binding; sequences stand for … in TCGTCGGCAGCGTCAGATGTGTATAAGAGACAGTTTTTTTTTTTTTTTTTTTTTTTTT…TC
Settings: aptamer strand: ATP DNA aptamer (quencher-CACCTGGGGGAGTATTGCGGAGGAAGG + anchor), 100 nM annealed; ATP concentration: 500 uM; one replicate
Summary of the method: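 Cy3-labelled switching-strand clusters on a modified Illumina MiSeq flow-cell were annealed to 100 nM quencher-labelled ATP aptamer and imaged first in selection buffer, then after 15 min with 500 uM ATP at 22 °C. NaOH stripping and re-annealing separated each of five buffer/ATP cycles, and clusters outside 100-1000 RFU were excluded. The fluorescence ratio sums target-cycle Cy3 intensity over buffer-cycle Cy3 intensity per cluster and averages it per switch-domain sequence.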
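Further: ATP exposure 15 min at 22 °C before imaging.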

Sequence | switch fluorescence ratio
CTAACGAGG | 1.02
TGGCATAAGC | 1.01
TTTCTCATGT | 0.996
TGCGCCGGCC | 0.966
AAATATCGG | 0.985
TATTTCGGCG | 1
TGATAGTGCC | 1.04
AGTTTCCACG | 0.966
TAACTGAG | 0.998
ATCTGTTGTG | 0.986
AATTATGTA | 1.05
TTCCAACATG | 0.992
ATTTCTATTA | 1.02
TTCTTACCAT | 0.989
GATTGTTTCT | 0.974
CTGGTTGCAG | 0.977
TTCTAGTTTA | 1.01
CTAAGGGCT | 0.975
CATACGTATG | 1.03
ATTGGATGTT | 1
GGGGAGATAC | 2.31
TTGAATCGTT | 1.03
TGGAGTCAC | 1.05
GTAATGGAGC | 0.956
TAGGCTTGTC | 1
CCTCCTCTGG | 2.18

Sequence | switch fluorescence ratio
AGCAGATA | 0.99
CCGGGACGAC | 1.67
GACTGGCCAA | 1.04
GGGAGTAATG | 1.41
TTACCCTTTT | 1
CTGATACCGT | 1.08
TTCAAAACTA | 1.05
GAGGCTTGAT | 0.943
GAATCAGATG | 1
GATTTATCTA | 0.991
TGGCGACAAG | 1.03
TTTGATGGCA | 1.1
CGCCGACGGT | 1.04
AGCTGCACGG | 1.01
ATATAAGTTG | 1.04
TTTTAACGCG | 1.03
CGAAAAGATC | 1.1
CAGCGAGACA | 1.27
AACAACATGC | 1.06
CCAGCGATTA | 1.51
GGTCATAGCC | 1.02
ATAACGGCTC | 1
TGTCAGATCT | 0.962
TGGTACAGGC | 1.05
CTCCTTCTTA | 1.06
TGTATTCTAT | 0.999

Sequence | switch fluorescence ratio
TGACCTTCAG | 0.963
TGTGAGAGAG | 0.971
CTAGCGGAAA | 0.995
AAGCCGTATC | 0.972
TAGTGCATAT | 1.01
ATTAACGGGG | 1
TACGGGCTTC | 0.988
ACTAGTTTCT | 0.978
CGACTATACT | 2.54
GGAAGGACAT | 1.06
GGTATAGCTT | 0.98
TTGACCCTTA | 1.03
GAAAATTAAC | 1.07
TTGGACCTCA | 1.12
AAAGAACTCG | 1.04
ACTAGTGAA | 1.02
ATGCCAACAT | 0.964
AATTGTCAAC | 0.96
TGGAGACAGT | 0.979
CTTCAAAGTG | 0.954
CTTGAACGGG | 0.996
GTCTATATTC | 0.981
CTGATTGTGA | 0.988
GTTACAAAAT | 0.97
TTATGGTTCC | 0.967
CGTACTGAG | 1.06

Sequence | switch fluorescence ratio
AATTGCGACC | 1.07
GGGTATTCGT | 0.987
ACATTGGCAC | 1.04
AGTGGTCCAG | 1.02
CAGTGGGCCG | 0.927
TTGAGCCTAT | 1.02
AAAAAGGAT | 0.986
ATTATTTCTT | 1.01
TATACATGGG | 1.03
ATCAACCCCA | 1.05
GCCTATAATA | 0.999
CAGGATATGA | 0.982
GGCTTGTTCG | 1.01
AATTCTCTCC | 1
CCGTATTCT | 1.05
GACACTTACT | 1.37
CAGCTAGAAA | 0.975
CGTTGCGAA | 0.973
GGAAGCATTT | 1.01
GTTGCGAACT | 0.946
ATAGAGCTCA | 0.999
CGGTAGACTC | 1.04
CAGGGCACGG | 0.984
TAGCATCAT | 0.949
TTTCACTATA | 1.09
ACTTCGAGGG | 1.31

Sequence | switch fluorescence ratio
AGAACCGCTG | 1.11
AGGGAGACTT | 0.991
GGGTTATGCC | 0.999
TCCCGCTCTA | 1.46
AGGTTGGCTA | 0.933
TGAAACGTTC | 1.18
TCTTGCGTAT | 1.04
CGATCGTGTT | 0.947
AAGGAGGTG | 1.06
TTCTAATC | 1.06
CAGGGGAGGC | 1.05
GGTGGTAATG | 0.93
GGCCTGGAGT | 0.99
GTCGGATGGG | 0.94
ACGTACGGAA | 1.47
GAGCTGCGGA | 1
GAGGATACTG | 1.04
CCTGCTGCCC | 1.37
TGCTAGCAAG | 1.04
CTCCAAGGAT | 1.17
CTCAAAAACC | 0.998
GGACTGCGGC | 1.01
CATTGTGAG | 0.975
GTAGGATGCT | 0.996
CGTTCGAATG | 1.03
CTGTTGGGAG | 0.985

Sequence | switch fluorescence ratio
ACGGTCGGGT | 1.04
AGCCGTGTAC | 1.33
GCGGCAGCCG | 0.984
TCTTGGTAAG | 1.02
CAGATAAAAC | 0.979
AAGACTCGCT | 1.03
CAATCAGCCT | 1.09
TATATAGTG | 0.996
GTCCCGCCAA | 1.67
CATTCATGAC | 1.03
GCCGCGTGCA | 1.05
TACGTGTTGT | 0.978
AGCACTATTA | 1.01
CGCCGTCTGC | 0.95
CCGCTACGGG | 1.92
TAAGGCAGGC | 1.05
GTCACCGTTT | 0.992
CGTATACAGG | 1
CAATTCGGGT | 1.01
AAATTTATCT | 0.969
TACCTCGCGC | 1.78
AAGTTCGGAC | 1.07
CTGTGTGTGG | 1
CATCTGACCC | 1.07
TCATGAGAGG | 0.992
CCACGTGGCC | 1.01

Sequence | switch fluorescence ratio
GTCGCTTTTG | 0.993
GGGACTGCAT | 1.03
CGGGAGTCGG | 1
GATCTACTCG | 0.99
GGTTCCAATT | 1.48
CGACAAAAGA | 3.03
CTCGGGATCG | 0.977
TTCGACCATT | 1.03
TGGGGCCAGG | 1.06
GAGGGTGTG | 1.05
TGTAGATGGT | 0.976
AGATAACTTG | 1
CGGGTCCGCA | 1.45
GTCGATAGCT | 0.973
GGAACTGACT | 1.07
CGGAAATCTA | 1.05
ATATTCCCGA | 1
GGGGTGTCGT | 0.991
TAAGTCAAGC | 1.05
TGGTCTTGAC | 1.01
GTTGCGAGG | 0.999
TGTTAGACGT | 1.06
TTTTATTATA | 0.998
TTCACATTTA | 0.997
TTACGTTGCG | 1.01
TGCAAGGTTC | 1.08

Sequence | switch fluorescence ratio
AGGGAGTGAC | 1.08
GTCCTCTCGA | 1.07
AATACTTCCC | 3.02
CTATTTAGAC | 0.987
ACTTCATTGA | 1.02
CATTCTTATC | 0.973
TATGAGCGGG | 0.984
ATGCCTGCTT | 0.987
GTACGCGCAG | 1.03
TGCGTTTTTG | 0.968
CTCGGGTTG | 0.971
GTGTGCGGGC | 1.14
TTGGAAGGAG | 0.984
CTGAGCCGGC | 1.03
TCCGGGCGTA | 1.05
AATCTATAGT | 0.992
AAGCCCTTA | 1.03
TGATTAGGTT | 0.989
AAGGGGTAGC | 1.05
